Source: paper PMC4336329 (PLoS ONE, 2015)
Among all 310,000 compounds or so, about 2,200 (0.71%) showed an effect of 50% or more. Effects have a minus sign here. The list shows a part of the results.

Target: human ether-à-go-go-related gene (hERG) potassium channel (human, UniProt Q12809)
Assay: primary screen, population patch clamp on CHO cells stably expressing hERG

Sequence of human ether-à-go-go-related gene (hERG) potassium channel (Q12809 whole entry, looked up): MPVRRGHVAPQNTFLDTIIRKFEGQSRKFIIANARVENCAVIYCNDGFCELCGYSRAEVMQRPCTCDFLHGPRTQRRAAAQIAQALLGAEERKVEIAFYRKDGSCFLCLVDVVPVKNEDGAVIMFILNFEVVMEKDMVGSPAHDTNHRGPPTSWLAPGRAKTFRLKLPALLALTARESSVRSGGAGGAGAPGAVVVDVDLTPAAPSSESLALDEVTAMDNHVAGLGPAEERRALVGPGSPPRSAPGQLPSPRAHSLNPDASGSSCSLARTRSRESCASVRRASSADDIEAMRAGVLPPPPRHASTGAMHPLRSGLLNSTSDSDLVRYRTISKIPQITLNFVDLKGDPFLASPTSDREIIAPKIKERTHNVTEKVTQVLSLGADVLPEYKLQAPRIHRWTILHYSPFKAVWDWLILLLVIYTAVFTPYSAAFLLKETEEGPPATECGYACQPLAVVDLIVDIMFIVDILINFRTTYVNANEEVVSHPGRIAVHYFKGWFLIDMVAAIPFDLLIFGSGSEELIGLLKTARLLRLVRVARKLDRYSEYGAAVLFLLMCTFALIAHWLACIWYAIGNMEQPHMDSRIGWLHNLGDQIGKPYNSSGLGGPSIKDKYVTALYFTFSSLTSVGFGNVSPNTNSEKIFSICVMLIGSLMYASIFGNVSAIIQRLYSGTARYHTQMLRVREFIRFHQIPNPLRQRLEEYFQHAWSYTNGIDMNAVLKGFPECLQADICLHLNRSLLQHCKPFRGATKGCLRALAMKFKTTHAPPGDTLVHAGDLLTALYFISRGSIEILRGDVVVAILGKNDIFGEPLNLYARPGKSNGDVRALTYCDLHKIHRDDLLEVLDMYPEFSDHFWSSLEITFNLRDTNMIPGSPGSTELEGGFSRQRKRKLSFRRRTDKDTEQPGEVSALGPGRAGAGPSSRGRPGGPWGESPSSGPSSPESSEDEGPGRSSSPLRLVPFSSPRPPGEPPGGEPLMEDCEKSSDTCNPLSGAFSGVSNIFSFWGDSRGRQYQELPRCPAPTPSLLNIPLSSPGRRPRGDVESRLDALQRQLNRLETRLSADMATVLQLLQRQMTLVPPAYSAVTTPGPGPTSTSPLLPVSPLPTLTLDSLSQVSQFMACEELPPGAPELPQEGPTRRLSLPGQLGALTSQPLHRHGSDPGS

Structure (SMILES)	hERG current change (%, negative = inhibition) at 1uM [%]
O=C(c1cccs1)N1CCCN(c2ncnc3scc(-c4ccccc4)c23)CC1	6.79
COc1ccccc1N1CCN(C2CCCN(C(=O)CCc3cnn(C)c3)C2)CC1 (centres unmarked)	5.08
O=C(CSc1nnc2ccc(-c3ccncc3)nn12)N1CCCCC1	4.66
Cc1ccc(NC(=O)CCN2C(=O)c3ccccc3C2=O)cc1C	8.32
COc1ccc(-c2nnc(NC(=O)C3CC3)o2)cc1	11.4
COc1ccc(-c2ccc3c(N)c(C(=O)NC(C)C)sc3n2)cc1OC	12.5
Cc1nn(Cc2ccc(Cl)cc2Cl)c(Cl)c1C(=O)O	4.01
COCCNC(=S)N1CCC(c2nc(-c3ccc(N(C)C)cc3)no2)CC1	3.53
CCOC(=O)c1cc2c(ccn2C)n1CC(=O)Nc1ccc(F)cc1	11.9
CCC(C)[C@H](NC(=O)NCc1ccccc1Cl)C(=O)OC (some centres unmarked)	13.7
CCN(CC)CCNC(=O)CSc1c2c(nc3cc(Cl)ccc13)CCCC2	-25.6
O=C(CSc1nc(O)cc(=O)n1-c1ccccc1)c1ccc(Br)cc1	10
Cc1ccc(NC(=O)NCc2nc3ccccc3n2C)cc1	14.9
CCOC(=O)N1CCC(N2Cc3cccc(C(=O)NCc4ccc(OC)cc4)c3C2=O)CC1	2.82
Cl.OCCNCc1cc(Br)ccc1OCc1ccccc1	-21.3
CCOCCn1c(-c2ccc(OC)cc2)nc2ccccc21	3.89
CC(C)CCSc1nnc(Cn2c(=O)sc3ccccc32)n1C	5.19
NS(=O)(=O)c1cccc(NC(=O)COC(=O)CCN2C(=O)c3ccccc3C2=O)c1	9.47
O=[N+]([O-])c1ccc(-c2ccc(/C=N/c3c(-c4ccco4)nc4ccccn34)o2)cc1	10.6
Cc1cccnc1Nc1nc(-c2ccccn2)cs1	8.95
O=C(NCCCN1CCOCC1)c1cccc(S(=O)(=O)Nc2ccc(F)cc2)c1	3.56
COc1ccc(NC(=O)CSc2nnc(CCC(=O)Nc3ccc(C)c(Cl)c3)n2C)cc1	6.72
CC(=O)c1c(C)[nH]c(C(=O)OCC(=O)Nc2cc(C(F)(F)F)ccc2N2CCOCC2)c1C	4.06

Structure (SMILES)	hERG current change (%, negative = inhibition) at 1uM [%]
Cc1cn2c(-c3ccncc3)nnc2s1	8.59
c1ccc(COc2cncc(-c3cccnc3)c2)cc1	1.76
CC(=O)Nc1ccc(S(=O)(=O)N2CCC(C(=O)NCCC(=O)NCc3ccncc3)CC2)cc1	8.93
CC(=O)Nc1ccc(S[C@@H](CCN2CC[C@H](O)CCC2=O)c2ccccc2)cc1	19.4
CC1CCCC(C)N1C(=O)CSc1nc2ccccc2c(=O)[nH]1 (centres unmarked)	17.9
Cc1ccc(Cn2c(C(C)Nc3nc(-c4ccc(Cl)cc4)cs3)nc3cc(C(=O)NCCCO)ccc32)cc1 (centres unmarked)	20.7
Cc1c(N(C)C(=O)COc2ccc3ccccc3c2)c(=O)n(-c2ccccc2)n1C	7.86
Clc1ccc(N2CCOCC2)nn1	13.4
O=C(CCn1cccc1)Nc1ccc(OC(F)(F)F)cc1	17.4
CCOc1ccc(OCC)c(NS(=O)(=O)c2cccc3nsnc23)c1	4.02
CCN(CC)CCCN(Cc1cc2cc3c(cc2[nH]c1=O)OCO3)C(=S)NCCOC	7.06
Cc1cc2nsnc2c(S(=O)(=O)N2CCN(C)CC2)c1C	12
COc1ccccc1OCCNC(=O)Nc1ccc(Br)cc1	7.49
CCOc1ccc(NC(=S)NC23CN4CN(CN(C4)C2)C3)cc1	17.4
COc1ccc(CN2CCC(=O)N([C@H](CO)c3ccccc3)CC2)cc1OC	11.2
CC(C)(C)c1ccc(Oc2cccc(C3CC(=O)C(C4NCCc5ccccc54)C(=O)C3n3cncn3)c2)cc1 (centres unmarked)	9.94
O=C(Nc1ccccc1)[C@@H]1CC=C[C@@H]2CCN(Cc3ccc(Cl)c(Cl)c3)C(=O)[C@@H]21	8.61
CCN(CC)c1ccc(N=Cc2c(O)n(-c3ccc(Cl)cc3)c(=O)[nH]c2=O)cc1	18.3
O=C1/C(=C/c2ccccn2)SC(=S)N1CCc1ccccc1	9.02
Nc1c(C(=O)N/N=C/c2ccc([N+](=O)[O-])cc2)cnn1-c1ccccc1	9.95
Cc1cccc(CSc2ncc(CO)n2C)c1	6.66
CCCOC(=O)c1c(NC(=O)CCCn2nc([N+](=O)[O-])cc2C)sc(C(=O)OC)c1C	13.2
COc1cc2c(cc1OC)C(CCc1ccccc1)=NCC2	-7.68

Structure (SMILES)	hERG current change (%, negative = inhibition) at 1uM [%]
O=C1COc2ccc(C(=O)COC(=O)Cc3ccccc3F)cc2N1	0.851
Cc1ccc(CCNC(=O)CNC(=S)N(Cc2ccccc2)Cc2cccnc2)cc1	-30.1
CC(C)CCNC(=O)COc1ccc(N(C)S(=O)(=O)c2ccc(F)cc2)cc1	-2.41
Cc1cc(O)c(Sc2ncn[nH]2)cc1NS(=O)(=O)c1ccc(Cl)cc1	9.19
C#CC(CC)(CC)NC(=O)c1ccc(Br)s1	5.87
COc1cc(S(=O)(=O)N(Cc2cccs2)C2CC2)ccc1-n1cnnn1	7.06
Cc1cccc(CCNC(=O)CC2C(=O)NCCN2CC2CCCCC2)n1 (centres unmarked)	17.4
Cc1cc(N/N=C/c2ccccc2O)c2ccccc2n1	-3.6
COCCCN(C(=O)CCOc1ccc(C(C)(C)C)cc1)c1c(N)n(Cc2ccccc2)c(=O)[nH]c1=O	0.637
CSCC(=O)N1CCC(n2nccc2NC(=O)c2ccc3c(c2)OCO3)CC1	0.299
COc1cccc(OCCn2ccnc2)c1	4.11
Cn1nc(C(=O)NC2CCCc3ccccc32)ccc1=O (centres unmarked)	15.7
CN(C)S(=O)(=O)c1ccc2oc(SCC(N)=O)nc2c1	11
Cc1ccc2nc(SCc3nnc(-c4ccccc4Br)o3)[nH]c2c1	9.48
Cc1ccc(NC(=O)CSc2ncccn2)cc1F	3.2
CC(C)(C)c1ccc(C(=O)NC(=S)NCC2CCCO2)cc1 (centres unmarked)	1.27
COC(=O)c1ccc(COC(=O)c2ccccn2)cc1	12.3
Cc1cccc(-c2csc(N)c2C(=O)OC(C)C)c1	5.18
Cc1ccc(NC(=O)CCN2CCCCC2)cc1.Cl	8.05
O=[N+]([O-])c1cc2c(cc1CN1CCN(c3ccccc3)CC1)OCO2	12.1
Cc1ccccc1OCC(=O)NC(=S)Nc1cccc2cc(O)ccc12	12
CCOC(=O)N1CCN(C(=O)C(CC(C)C)NC(=O)C2CCCCC2)CC1 (centres unmarked)	14.2
CS(=O)(=O)c1ccc(Cl)c(NC(=O)COC(=O)CNC(=O)c2ccc3ccccc3c2)c1	4.7

Structure (SMILES)	hERG current change (%, negative = inhibition) at 1uM [%]
COc1ccc(N2C(=O)CSC2c2cccc(OC)c2OC)cc1 (centres unmarked)	12.7
COc1ccccc1N(C(=O)CNC(=O)c1ccco1)C(C(=O)NC1CCCC1)c1ccncc1 (centres unmarked)	10.7
Cc1ccc(O)c(N=Cc2sc3ccccc3c2Cl)c1	11.3
CCN(CC)C(=O)CC1(c2ccccc2OC)CCOC(C(C)C)C1 (centres unmarked)	2.22
CCC(C)(C)NC(=O)C(c1ccc(OC)cc1)N(Cc1ccccc1)C(=O)CCC(=O)Nc1cc(C)on1 (centres unmarked)	8.74
Cc1cccc(NC(=O)c2cc3c(=O)n4ccccc4nc3s2)c1	11.5
O=C(Cc1ccccc1)Nc1ccc(NC(=O)c2cccs2)cc1Cl	-14.9
CC(=O)NC(NC(=S)N1CCCCCC1)C(Cl)(Cl)Cl (centres unmarked)	10.1
COC(=O)c1sccc1NC(=O)COc1ccc(Cl)cc1	-1.18
Cc1cc(C)n(CC(=O)N2c3ccccc3Sc3ccccc32)n1	4.34
C#CCOCCOCCOCCNc1nc(N2CCN(C(=O)[C@H](CCCC[NH3+])n3cc(CCCC)nn3)CC2)nc(N2CCN(C(=O)[C@H](CCCC[NH3+])n3cc(CCCC)nn3)CC2)n1.[Cl-]	17
CC(NC(=O)c1cc(S(=O)(=O)N2CCCC2)cn1C)c1ccccc1 (centres unmarked)	11
Cc1ccc(CNC(=O)C2CCN(S(=O)(=O)N3CCC4(CC3)OCCO4)CC2)cc1	1.7
O=c1cc(-c2cccc3ccccc23)[nH][nH]1	13.5
CCC(C)C(=O)Nn1c(C2CC2)nc2cc(OC)c(OC)cc2c1=O (centres unmarked)	16.3
CCCCOP(=O)(OCCCC)C(O)c1ccc(N(C)C)cc1 (centres unmarked)	12.5
CC(=O)Nc1ccc(NC(=O)c2sc3nc4n(c(=O)c3c2C)CCCCC4)cc1	-2.1
Cc1nc2ccccc2n1CCC(=O)O.Cl	-13.9
Cc1ccccc1-n1nc2c(c1NC(=O)c1cc3ccccc3o1)CS(=O)(=O)C2	3.47
CCc1ccccc1NC(=O)C1CCCN(c2nccc(C)n2)C1 (centres unmarked)	15.6
